pIC50: −log10 of the molar value. The IC50 comes from the fitted curve, where viability falls to half of the control; fits outside the tested doses are given as limits. AUC sums up the same curve from the lowest dose to the 256-fold higher top dose; values near 1 show little effect. For some assays here: A top dose marked as inferred is not printed in the source and was worked back from the curve model. For some assays here: Where an entry number is given, a second screen of the drug exists; the two often differ.
Key:
Assay in all cases: Viability of human cancer cell lines after 72 h of drug (GDSC screen)
Tamoxifen = compound: CC/C(=C(\c1ccccc1)c1ccc(OCCN(C)C)cc1)c1ccccc1 [Tamoxifen]; details: top dose 5 µM
Procedure: (§1)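 Human cancer cell lines in 384-well plates, medium with 10% serum, drug for 72 h over a 256-fold dose range (nine 2-fold or five 4-fold steps up to the top dose). Adherent lines were fixed and stained with the nucleic acid dye Syto60, suspension lines read with resazurin; signal relative to control wells, capped at 0 and 100%. One two-parameter sigmoid per drug and line, fitted in a mixed model over all curves with the slope shared within a line.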

VNLG/124 = compound: CCCC(=O)OCc1ccc(OC(=O)/C=C(C)/C=C/C=C(C)/C=C/C2=C(C)CCCC2(C)C)cc1 [VNLG/124]; details: top dose 5.12 µM; top dose inferred
Procedure: as §1

Elesclomol = compound: CN(NC(=O)CC(=O)NN(C)C(=S)c1ccccc1)C(=S)c1ccccc1 [Elesclomol]; details: top dose 0.2 µM; top dose inferred
Procedure: as §1

Bleomycin = compound: Cc1c(N)nc([C@H](CC(N)=O)NC[C@H](N)C(N)=O)nc1C(=O)N[C@H](C(=O)N[C@H](C)[C@@H](O)[C@H](C)C(=O)N[C@H](C(=O)NCCc1nc(-c2nc(C(=O)NCCC[S+](C)C)cs2)cs1)[C@@H](C)O)[C@@H](OC1OC(CO)C(O)C(O)C1OC1OC(CO)C(O)C(OC(N)=O)C1O)c1cnc[nH]1 [Bleomycin]
Procedure: as §1

Masitinib = compound: Cc1ccc(NC(=O)c2ccc(CN3CCN(C)CC3)cc2)cc1Nc1nc(-c2cccnc2)cs1 [Masitinib]; details: top dose 20 µM
Procedure: as §1

LAQ824 = compound: O=C(/C=C/c1ccc(CN(CCO)CCc2c[nH]c3ccccc23)cc1)NO [LAQ824]; details: top dose 1.024 µM; top dose inferred
Procedure: as §1

OSI-930 = compound: O=C(Nc1ccc(OC(F)(F)F)cc1)c1sccc1NCc1ccnc2ccccc12 [OSI-930]; details: top dose 10.24 µM
Procedure: as §1

BX-912 = compound: O=C(Nc1cccc(Nc2ncc(Br)c(NCCc3cnc[nH]3)n2)c1)N1CCCC1 [BX-912]; details: top dose 10.24 µM; top dose inferred
Procedure: as §1

NSC-87877 = compound: O=S(=O)(O)c1ccc2cc(N=Nc3cc(S(=O)(=O)O)c4cccnc4c3O)ccc2c1 [NSC-87877]; details: top dose 16 µM; top dose inferred
Procedure: as §1

[1] = top dose 50 µM, screen: GDSC drug entry 1378, top dose inferred
[2] = top dose 64 µM, screen: GDSC drug entry 190

Cell Line | AUC (Tamoxifen) | pIC50 (Tamoxifen) | AUC (VNLG/124) | pIC50 (VNLG/124) | AUC (Elesclomol) | pIC50 (Elesclomol) | AUC (Bleomycin; [1]) | pIC50 (Bleomycin; [1]) | AUC (Bleomycin; [2]) | pIC50 (Bleomycin; [2]) | AUC (Masitinib) | pIC50 (Masitinib) | AUC (LAQ824) | pIC50 (LAQ824) | AUC (OSI-930) | pIC50 (OSI-930) | AUC (BX-912) | pIC50 (BX-912) | AUC (NSC-87877) | pIC50 (NSC-87877)
COLO-824 (breast, adherent) | 0.982 | < 5.30 | 0.983 | < 5.29 | 0.731 | 7.24 | 0.832 | 4.49 | 0.836 | 4.36 | 0.903 | < 4.70 | 0.588 | 6.95 | 0.929 | < 4.99 | 0.881 | < 4.99 | 0.987 | < 4.80
BC-1 (B-cell lymphoma, suspension) | 0.961 | < 5.30 | 0.988 | < 5.29 | 0.82 | 7.03 | 0.689 | 5.02 | 0.406 | 5.64 | 0.96 | < 4.70 | 0.315 | 7.67 | 0.915 | < 4.99 | 0.567 | 6.02 | 0.991 | < 4.80
NCI-SNU-1 (stomach, suspension) | 0.979 | < 5.30 | 0.97 | < 5.29 | 0.968 | < 6.70 | 0.912 | < 4.30 | 0.473 | 5.47 | 0.871 | 4.70 | 0.548 | 7.06 | 0.969 | < 4.99 | 0.818 | 5.22 | 0.982 | < 4.80
TE-6 (oesophagus, adherent) | 0.979 | < 5.30 | 0.98 | < 5.29 | 0.788 | 6.98 | 0.927 | < 4.30 | 0.671 | 4.88 | 0.892 | < 4.70 | 0.537 | 7.09 | 0.959 | < 4.99 | 0.944 | < 4.99 | 0.978 | < 4.80
LU-165 (small cell lung carcinoma, suspension) | 0.981 | < 5.30 | 0.988 | < 5.29 | 0.988 | < 6.70 | 0.971 | < 4.30 | 0.833 | 4.31 | 0.94 | < 4.70 | 0.483 | 7.24 | 0.983 | < 4.99 | 0.937 | < 4.99 | 0.988 | < 4.80
NCI-H2405 (lung adenocarcinoma, adherent) | 0.975 | < 5.30 | 0.986 | < 5.29 | 0.681 | 7.37 | 0.737 | 4.79 | 0.518 | 5.35 | 0.931 | < 4.70 | 0.47 | 7.28 | 0.95 | < 4.99 | 0.921 | < 4.99 | 0.946 | < 4.80
KARPAS-422 (B-cell lymphoma, suspension) | 0.982 | < 5.30 | 0.985 | < 5.29 | 0.799 | 7.02 | 0.961 | < 4.30 | 0.873 | 4.22 | 0.809 | 4.99 | 0.357 | 7.59 | 0.97 | < 4.99 | 0.782 | 5.37 | 0.983 | < 4.80
NCI-H2444 (non-small cell lung carcinoma, adherent) | 0.987 | < 5.30 | 0.988 | < 5.29 | 0.961 | < 6.70 | 0.859 | < 4.30 | 0.934 | < 4.19 | 0.978 | < 4.70 | 0.551 | 7.05 | 0.969 | < 4.99 | 0.982 | < 4.99 | 0.988 | < 4.80
KE-37 (lymphoblastic leukaemia, suspension) | 0.994 | < 5.30 | 0.973 | < 5.29 | 0.669 | 7.49 | 0.907 | 4.40 | 0.796 | 4.65 | 0.901 | 4.83 | 0.149 | 8.10 | 0.935 | < 4.99 | 0.24 | 6.84 | 0.981 | < 4.80
Daoy (medulloblastoma, adherent) | 0.988 | < 5.30 | 0.987 | < 5.29 | 0.578 | 7.70 | 0.247 | 6.19 | 0.109 | 6.59 | 0.887 | 4.73 | 0.254 | 7.86 | 0.916 | < 4.99 | 0.92 | < 4.99 | 0.975 | < 4.80
NCI-H1666 (lung adenocarcinoma, semi-adherent) | 0.944 | < 5.30 | 0.987 | < 5.29 | 0.937 | < 6.70 | 0.76 | 4.72 | 0.919 | < 4.19 | 0.947 | < 4.70 | 0.736 | 6.49 | 0.973 | < 4.99 | 0.964 | < 4.99 | 0.984 | < 4.80
SU-DHL-6 (B-cell lymphoma, suspension) | 0.864 | 5.58 | 0.974 | < 5.29 | 0.629 | 7.59 | 0.772 | 4.83 | 0.29 | 5.91 | 0.905 | 4.84 | 0.146 | 8.09 | 0.881 | 5.21 | 0.449 | 6.32 | 0.995 | < 4.80
KYSE-70 (oesophagus, adherent) | 0.682 | 5.97 | 0.985 | < 5.29 | 0.739 | 7.19 | 0.597 | 5.23 | 0.378 | 5.75 | 0.945 | < 4.70 | 0.428 | 7.40 | 0.976 | < 4.99 | 0.968 | < 4.99 | 0.958 | < 4.80

Source: the supplement of paper PMC4967469
